Hit rate of the full screen: of about 150,000 compounds, about 540 (0.36%) showed an effect of 50% or more. The list shows a part of the results.
tested on: Plasmodium falciparum; assay: Primary screen in NF54 nanoGlo assay, in single point, at 2uM, 72h; a lower Z score goes with more inhibition; type: functional, Erythrocyte; conditions: timepoint 72 hour

Compound	% Inhibition	Z score
O=C(c1ccco1)N1CCN(c2nnc3ccc(C(F)(F)F)cn23)CC1	25%	-2.81
COc1cc(NC(=O)[C@H](C)NC(=O)C2CC(=O)N(c3ccccc3)C2)cc(OC)c1OC (stereo partly drawn)	-6%	0.81
O=C(c1n[nH]c2ccccc12)N1C[C@H](c2nnc(-c3ccncc3)o2)C2(CCOCC2)C1	-10%	1.81
Cc1ccc(S(=O)(=O)NC(=N)NCc2ccccc2)cc1C	-15%	1.43
O=C(Cn1nc2c(Oc3ccc(Cl)cc3)nccn2c1=O)NCc1ccc(F)cc1	-11%	1.03
CC(C)c1nc2ccc(C(=O)NCCN3CCN(c4cccc(Cl)c4)CC3)cc2o1	-19%	3.07
O=C(NCCc1csc(N2CCCC2)n1)c1cnc(C(F)(F)F)nc1	-5%	0.54
Cc1ccc(CCNC(=O)c2ccc(-c3nc(CS(=O)(=O)c4ccc(C)cc4)c(C)o3)cc2)cc1	34%	-4.98
O=C(Nc1nc2nc(-c3ccccc3)oc2c(=O)[nH]1)c1ccccc1	-14%	1.83
O=C(O)c1ccc(N2CCCN(Cc3cccc(F)c3)C2=O)cc1	-10%	1.29
Cc1cc(C)n(CCCc2nc(C(C)C)nn2-c2ccccn2)n1	0%	-0.08
Cc1cc(C)n2nc3c(c2n1)[C@@H](c1ccc(N(C)C)cc1)CC(=O)N3	4%	-0.4
CCC(=O)NC1CCC(Nc2nc([C@@H](C)CC)nc3c2cnn3-c2ccccc2Cl)CC1 (stereo partly drawn)	-28%	3.03
O=C(Nc1nc2ccccc2s1)[C@H](Cc1ccccc1)NC(=O)N1CCOCC1	-7%	0.91
O=C(NCc1nc2ncccn2n1)N[C@H]1CCCC12CCCCC2	16%	-2.06
CCn1cc(S(=O)(=O)N[C@H]2CCCN(CCOC)C2)cn1	6%	-0.74
Cc1n[nH]nc1C(=O)NCc1csc(N)n1	-9%	1.17
CCNc1nc(C)cc(Nc2ccc(NC(=O)c3cc(C)ccc3C)cc2)n1	97%	-9.09
CCCc1nccn1CCO[C@@H]1CCCCO1	-13%	1.49
CN1CCCN(CC(=O)Nc2ccc([C@@H](O)c3cccs3)cc2)CC1	18%	-2.45
O=C(Nc1cnns1)N1CCC(n2cn[nH]c2=O)CC1	8%	-0.9
C[C@@H](CN)Oc1cccc(CN(C)Cc2ccoc2)c1	-12%	1.38
Cc1cc(C(=O)Nc2c(F)cccc2OCc2ccccc2)on1	32%	-3.44
CC#CCCN1CCN(S(C)(=O)=O)CC1	17%	-1.9
O=C(Nc1cccc(Cl)c1)O[C@H]1CCCc2ccccc21	8%	-0.92
Cc1cc(C(=O)N[C@H](c2noc(O)n2)C(C)(C)C)ncn1	-15%	1.38
COc1ccc(CC(=O)Nc2cnc(-n3ccnc3)nc2)cc1	-4%	0.6

Compound	% Inhibition	Z score
CC(C)N1CCN(C(=O)[C@@H]2CCCCC(=O)N2Cc2ccccc2)CC1	-15%	1.72
CCOc1ccccc1C(=O)NCc1ccc(-c2ccco2)nc1	-9%	0.98
CN(Cc1cccc(F)c1)C(=O)c1nnc(-c2ccncc2)o1	0%	-0.01
Cc1nc2nc(CN3CCC(c4cc[nH]n4)CC3)cc(O)n2n1	-4%	0.75
CN(Cc1cccc(C#N)c1)C(=O)C(=Cc1ccccc1)c1ccc(Cl)cc1	-4%	0.53
O=S(=O)(N[C@H]1CCCc2ccccc21)c1cccc2c1N=S=N2	-10%	1.79
COc1ccc(C(=O)Nc2c(C#N)c(-c3ccc(Cl)cc3)nn2C(C)(C)C)cc1	4%	-0.58
CN1CCC[C@@H]1CCn1cnc(-c2ccccc2)c1-c1ccccc1C(=O)O	12%	-2.19
C[C@H](Nc1ncc(C#N)cc1Cl)C1(S(C)(=O)=O)CC1	-11%	0.93
O=C1NCCN1CC1CCN(C(=O)[C@H]2C[C@@H]2c2cccc(O)c2)CC1	-5%	0.66
CCCC1(CCC)NC(=O)N(CC(=O)c2ccc3c(c2)CCO3)C1=O	-30%	3.53
CN(CCN1CCCCC1=O)Cc1ccc(-c2ccco2)cc1	-5%	1.06
CC[C@@H]1CN(Cc2cc3ccc(F)cc3[nH]c2=O)CC[C@]1(C)O	-4%	0.69
CN(CC(=O)N[C@H](c1ccccc1)C1CCCCC1)c1cnccn1	-11%	1.09
Cn1cc(-c2noc(CNc3ncccn3)n2)cn1	2%	-0.21
Cc1ccc([C@@H](NC(=O)Nc2nc(-c3ccccc3)cs2)C(Cl)(Cl)Cl)cc1F	-3%	0.49
CC1OCCC1(C)NC(=O)Nc1ccc(C2CCC2)cn1 (stereo not drawn)	-6%	0.78
CCOc1c(Cl)cccc1CC(=O)N1CCCC[C@H]1c1ncon1	-6%	0.65
Cc1noc(CCN2CC(O)=C(c3nc4ccccc4[nH]3)C2=N)n1	18%	-2.22
Cc1cc(=O)n(CC(=O)N2Cc3nnc(C)n3[C@@H](C)C2)c2ccccc12	-19%	2.21
O=C(NCc1ccc2c(c1)CCC2)NCC1CCC(O)C1 (stereo not drawn)	0%	0.06
Cc1ccn2cc(CN3C(=O)CCNC3=O)nc2c1	-14%	1.82
Cc1cc(C(=O)NC[C@]2(OCCO)CCOC2)c(C)o1	-9%	1.39
COc1ccnc(NCCn2cc(C)cn2)n1	-12%	2.34
Cc1cccnc1[C@H](C)n1cnc(-c2ccccc2)c1C	3%	-0.44
Nc1nc2nc(C(F)(F)C(F)(F)C(F)(F)C(F)(F)F)cc(O)n2n1	-9%	1.19
COc1ccc(-c2noc(Cn3ncn(C)c3=O)n2)cc1OC	4%	-0.58
